Source: paper PMC9804489, “Phase 1/1b Studies of UCB0599, an Oral Inhibitor of α‐Synuclein Misfolding, Including a Randomized Study in Parkinson's Disease” (Movement Disorders, 2022)

Legend:
[1] = UP0078 phase 1 study: effect of food and ITZ on single-dose PK of UCB0599; assay type: in vivo, human; conditions: for Tmax / AUC(0-t) / Cmax / half-life: human, plasma, oral, UCB0599 180 mg single dose; for AUC(0-t): read-out: AUC(0–t), geometric mean (CV%); for Cmax: read-out: Cmax, geometric mean (CV%); for half-life: read-out: Half-life, geometric mean (CV%) (converted)
Description: Statistical evaluations for all three studies were performed using SAS version 9.4 (SAS, Cary, NC, USA), and PK data were analyzed using Phoenix WinNonlin software (Certara, Princeton, NJ, USA). Continuous variables were summarized with number of participants, mean, standard deviation, median, minimum and maximum, and confidence intervals (CI) for the mean. Categorical variables were summarized with frequency counts and percentages.

aggregated ASYN = system: aggregated ASYN; design: method as in ref 16 = [16]; 16 Price D , Khan A , Angers R , et al. Preclinical in vivo characterization of UCB0599, an orally available, small molecule inhibitor of α‐Synuclein Misfolding in development for Parkinson's disease; conditions: chronic in‐vivo dosing, ASYN transgenic mice; cited from earlier work
[2] = UP0077 phase 1b study: safety and tolerability in participants with PD
[3] = UP0078 phase 1 food/ITZ study: safety and tolerability in healthy participants; conditions: UP0078
[4] = UP0077, UCB0599 180 mg/day, n=7
[5] = UP0077, UCB0599 360 mg/day, n=14

## CCCC[C@H](Cc1c[nH]c2ccccc12)NC(=O)c1cnc(N2CCN(C)CC2)s1 [UCB0599]
[1]; co‐administration with ITZ
  Increase of area under the curve on co‐administration with ITZ: 2 to 3 fold
  Increase of maximum plasma concentration on co‐administration with ITZ: ~ 1.3 fold
[1]; 180 mg, fasted, n=22
  Tmax: 1.5 h
  AUC(0-t): 5980 ng·h/mL
  Cmax: 738 ng/mL
  half-life: 9.3 h
[1]; 180 mg, fed, n=22
  Tmax: 3 h
  AUC(0-t): 6520 ng·h/mL
  Cmax: 771 ng/mL
  half-life: 9.6 h
[1]; 180 mg, with ITZ, n=21
  Tmax: 2 h
  Cmax: 964 ng/mL
  half-life: 15.9 h
[1]; fasted with ITZ 200 mg once daily, n=21
  AUC(0-t): 16500 ng·h/mL
Aggregated ASYN
  Aggregated ASYN levels: decreased
  Functional motor endpoints associated with PD: improved
[2]; UP0077
  Hypersensitivity reactions: 2 n
[2]; [4]
  Any related TEAE (considered related to study medication): 4 (57) n (%)
  Related TEAE Glomerular filtration rate decreased: 0 n (%)
  Related TEAE Headache: 3 (43) n (%)
  Related TEAE Hypotension: 0 n (%)
  TEAE Glomerular filtration rate decreased: 0 n (%) […]
  TEAE Hypotension: 0 n (%) […]
  TEAE Post-lumbar puncture syndrome: 0 n (%) […]
  TEAE Syncope: 0 n (%) […]
[2]; UP0077, UCB0599 360 mg/day group
  Discontinuations due to TEAEs: 1 n
[2]; [5]
  Any related TEAE (considered related to study medication): 5 (36) n (%)
  Related TEAE Glomerular filtration rate decreased: 2 (14) n (%)
  Related TEAE Headache: 2 (14) n (%)
  Related TEAE Hypotension: 2 (14) n (%)
  TEAE Syncope: 0 n (%) […]
[2]; UP0077, total UCB0599 N=21
  Any related TEAE (considered related to study medication): 9 (43) n (%)
  Related TEAE Glomerular filtration rate decreased: 2 (10) n (%)
  Related TEAE Headache: 5 (24) n (%)
  Related TEAE Hypotension: 2 (10) n (%)
  TEAE Syncope: 0 n (%) […]
[2]; UP0077, total UCB0599 group
  Participants reporting TEAEs: 81%
  Treatment‐related adverse events, participants: 43%
[3]
  Participants reporting TEAEs: 27.3%
  TEAE considered related to the substance: 4.5%
  Vital signs, laboratory evaluations, physical examinations, or ECG findings: No clinically significant abnormalities

Like-named read-outs stand apart in the source and are kept apart here.
